Laboratory results reported in paper PMC12040169 (PLOS Biology, 2025).
Some of the results follow.

Each compound was assayed on T1, C. trachomatis L2/434/Bu expressing GFP (CTL2-GFP). Conditions: total inclusion area; 28.5 h, 10 µM; inhibitor.
T1 construct: L2/434/Bu GFP intracellular growth in HeLa cells
Parameters: species or system HeLa; C. trachomatis total inclusion area by high-content imaging, normalised to DMSO
In short: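 Post-fluorescence-read fixation, DNA staining with Hoechst and high-content imaging; GFP inclusion area and number per well, and nuclei counts, used as proxies for bacterial growth and host viability.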
In the case of `CCC(CC)C(=O)N1C[C@H]2CCc3cn(CCNC(C)=O)nc3[C@H]2C1` [CBK282183], the “% of control remaining” value was 84.7461. For `CN1CCN(C(=O)CN(c2ccccc2)S(=O)(=O)N(C)C)CC1` [CBK268079], the “% of control remaining” value was 84.0214. For `c1ccc(CCCN2CCN(Cc3ccccc3)CC2)cc1` [CBK261878], the “% of control remaining” value was 104.326. `CC(C)(C)OC(=O)N1CCN(c2ccccc2O)CC1` [CBK003878] was tested, and the “% of control remaining” value was 98.703. For `CCCSc1nnc(NC(=O)c2nc(SC)ncc2Cl)s1` [CBK268759], the “% of control remaining” value was 86.8353. For `Cc1cc(C)c(NC(=O)CSc2ncccc2-c2nc(C)no2)c(C)c1` [CBK287821], the “% of control remaining” value was 100.084. For `CCOC(=O)CNC(=O)c1cc(Br)c(OC)c(OC)c1` [CBK058454], the “% of control remaining” value was 32.7162. `O=C(c1ccco1)N1CCN(c2cc(-c3cccc4cccnc34)ncn2)CC1` [CBK091117] was tested, and the “% of control remaining” value was 127.874. For `Cc1ccc([N+](=O)[O-])cc1NC1OCC(O)C(O)C1O` (centres unmarked) [CBK262026], the “% of control remaining” value was 108.546. `CC(C)=NNC(=O)Nc1nonc1N` [CBK027368] was tested, and the “% of control remaining” value was 78.9955. `O=C(NC[C@H]1O[C@@H](CC(=O)N2CCCC2)[C@H](O)[C@@H]1O)c1ccccc1` [CBK288907] was tested, and the “% of control remaining” value was 84.3823. In the case of `OCCOc1ccccc1OCCO` [CBK260930], the “% of control remaining” value was 98.2513. In the case of `Cc1cccc(Nc2ncc(Cc3ccccc3C)s2)n1` [CBK287849], the “% of control remaining” value was 96.6534. In the case of `Cc1ccc(-c2c(C(=O)NNC(=S)NCc3ccco3)csc2C)cc1` [CBK266992], the “% of control remaining” value was 89.6652. In the case of `CNC(=O)[C@@H]1CN(Cc2ccccc2)C[C@H]1C(=O)c1ccc(F)cc1` [CBK282902], the “% of control remaining” value was 97.2097. In the case of `NC(=O)c1c(NC(=O)NCc2cccnc2)sc2c1CCC2` [CBK307578], the “% of control remaining” value was 9.846. With `CC(C)[C@H](NS(=O)(=O)c1ccc(Cl)cc1)C(=O)NCc1ccc(Cn2cccn2)cc1` [CBK295611] the “% of control remaining” value was 54.7931. In the case of `CC(C)[C@H](CO)Nc1nccnc1-c1cccc(O)c1` [CBK037542], the “% of control remaining” value was 73.2818. `O=C(Nc1cccc(CCc2nc3ccccc3[nH]2)c1)c1ccc(Cn2cncn2)cc1` [CBK285648] was tested, and the “% of control remaining” value was 71.0913. `O=C(NC(=S)Nc1cccc(-c2nc3ccccc3s2)c1)c1cc([N+](=O)[O-])ccc1N1CCOCC1` [CBK268789] was tested, and the “% of control remaining” value was 95.8188. `COc1ccc(-c2cnc(NCC3CC3)c(C(=O)NCc3ccco3)c2)cc1` [CBK076283] was tested, and the “% of control remaining” value was 54.4204. With `O=C(NCC1(O)CCSCC1)c1ccc2ccccc2n1` [CBK305211] the “% of control remaining” value was 81.5512. For `CC1Cc2cc(C(O)(CCN(C)C)c3ccccc3)ccc2O1` (centres unmarked) [CBK011764], the “% of control remaining” value was 45.7975. For `CNC(=O)C1(Cc2cccc(-c3cccs3)c2)CCN(C(=O)Cc2ccccc2)CC1` [CBK285745], the “% of control remaining” value was 123.759. `O=C(O)CCCN1C(=O)/C(=C/c2c[nH]c3ccccc23)SC1=S` [CBK262580] was tested, and the “% of control remaining” value was 85.3206. With `CC(C)N(C(=O)Cn1c(-c2ccco2)cc2cccnc21)C(C)C` [CBK282682] the “% of control remaining” value was 90.1201. `CN(C)CC1CCCN(C(=O)[C@@H]2C[C@@H]3C=C[C@H]2C3)C1` (some centres unmarked) [CBK282063] was tested, and the “% of control remaining” value was 104.02. `Cc1cc(=O)n2ncn(CC(=O)NCCOc3ccccc3)c2c1` [CBK305823] was tested, and the “% of control remaining” value was 72.7423. With `O=C(CN1CCC(Cc2ccccc2)CC1)Nc1ccc(S(=O)(=O)N2CCOCC2)cc1` [CBK268451] the “% of control remaining” value was 112.162. In the case of `Cc1nn2c(O)c3c(nc2c1-c1cccs1)CCC3` [CBK283729], the “% of control remaining” value was 78.599. `Cc1cc(C)nc(NC(=O)c2c(Cl)cccc2Cl)n1` [CBK058401] was tested, and the “% of control remaining” value was 91.8977. `OCC(O)/C=N/Nc1nc(N2CCCCC2)nc(N2CCCCC2)n1` (centres unmarked) [CBK019423] was tested, and the “% of control remaining” value was 73.6907. `O=C(NCc1cccc(C(F)(F)F)c1)N1CCCCC1CO` (centres unmarked) [CBK156165] was tested, and the “% of control remaining” value was 98.2576. In the case of `COc1ccc(OCCNC(=O)c2cc(-c3cccnc3)cnc2N2CCOCC2)cc1` [CBK076341], the “% of control remaining” value was 101.74. In the case of `CC1(C)CC(NC(=O)CN2CCCCC2)CC(C)(C)N1` [CBK261956], the “% of control remaining” value was 102.107. In the case of `CCCN1CCC(N(C)CCN(CC)CC)CC1` [CBK261935], the “% of control remaining” value was 96.4927. For `COc1ccc([C@@]23CC[C@@H](NC(=O)Nc4ccc(Cl)cc4Cl)C[C@@H]2CN(C)C3)cc1OC` [CBK085798T], the “% of control remaining” value was 75.8301. In the case of `CCC(CC)NS(=O)(=O)c1cccc(C(=O)O)c1` [CBK287225], the “% of control remaining” value was 101.122. `O=C(CN1C(=O)/C(=C/c2ccccc2)SC1=S)Nc1cccc(C(=O)O)c1` [CBK262171] was tested, and the “% of control remaining” value was 89.8164. With `NC(=O)C1(Cc2ccccc2-c2ccccc2)CCN(C(=O)Cc2ccccc2)CC1` [CBK285909] the “% of control remaining” value was 116.256. With `COC(=O)c1cc(C#N)c(=O)n(CC(=O)N(C)Cc2ccsc2)c1` [CBK297788] the “% of control remaining” value was 104.588. `Cc1cc(CNC(=O)/C=C/c2ccc(C(C)C)cc2)no1` [CBK149614] was tested, and the “% of control remaining” value was 75.6566. `CC(=O)NC(c1ccccn1)C1CCCN(C(=O)C(C)C)C1` (centres unmarked) [CBK285030] was tested, and the “% of control remaining” value was 89.5644. `CC(C)(C)c1cc(C(=O)NCC(=O)NCC(=O)O)cc(C(C)(C)C)c1` [CBK262200] was tested, and the “% of control remaining” value was 89.9714. In the case of `OC/C=C/c1cnc2ccccc2c1` [CBK001749], the “% of control remaining” value was 95.4622. For `O=C(O)CCCOc1nc(C2CC2)cc(C(F)(F)F)n1` [CBK286886], the “% of control remaining” value was 91.8467. In the case of `Nc1ncnc2c1nc1n2[C@H]2C[C@@H](O)[C@@H](C1)O2` [CBK201254], the “% of control remaining” value was 96.5455. With `CC(O)CNCc1ccccc1OCc1ccccc1F` (centres unmarked) [CBK270278C] the “% of control remaining” value was 87.0165. With `COCCNc1cc(-c2ccccc2N(C)C)ncn1` [CBK090790] the “% of control remaining” value was 110.806. With `COc1ccc(C2CC(=O)c3c(C)n[nH]c3C2)cc1` (centres unmarked) [CBK287911] the “% of control remaining” value was 74.3289. For `O=C(NCC1(O)CCSCC1)c1cc2ccccc2[nH]1` [CBK305199], the “% of control remaining” value was 42.6714. `Cc1ccc2c(Cl)c(-c3nnc(-c4ccc(Cl)cc4)o3)sc2c1` [CBK263682] was tested, and the “% of control remaining” value was 109.03. For `CCc1ccc(-c2ccc(C(=O)OC)cn2)cc1` [CBK149232], the “% of control remaining” value was 132.108.
